# In PubChem BioAssay AID588591 (National Center for Advancing Translational Sciences (NCATS), 2011):
# Hit rate of the full screen: of about 390,000 compounds, about 4,700 (1.2%) were called active. Inconclusive results, whose numbers are uncertain, are shown with a selection of clear calls. Calls come from the whole dose curve; as a rule, active = well fitted inhibition curve with a large enough effect; inconclusive = small, poorly fitted or top-dose-only effect, or another doubt; inactive = no such curve, though single readings can be large or run the other way. Potencies beside an inconclusive call are fits to weak or partial responses and may not hold up.
# Biological target: DNA polymerase eta (Homo sapiens) (UniProt Q9Y253)
# UniProt Q9Y253, sequence (Q9Y253 whole entry, looked up): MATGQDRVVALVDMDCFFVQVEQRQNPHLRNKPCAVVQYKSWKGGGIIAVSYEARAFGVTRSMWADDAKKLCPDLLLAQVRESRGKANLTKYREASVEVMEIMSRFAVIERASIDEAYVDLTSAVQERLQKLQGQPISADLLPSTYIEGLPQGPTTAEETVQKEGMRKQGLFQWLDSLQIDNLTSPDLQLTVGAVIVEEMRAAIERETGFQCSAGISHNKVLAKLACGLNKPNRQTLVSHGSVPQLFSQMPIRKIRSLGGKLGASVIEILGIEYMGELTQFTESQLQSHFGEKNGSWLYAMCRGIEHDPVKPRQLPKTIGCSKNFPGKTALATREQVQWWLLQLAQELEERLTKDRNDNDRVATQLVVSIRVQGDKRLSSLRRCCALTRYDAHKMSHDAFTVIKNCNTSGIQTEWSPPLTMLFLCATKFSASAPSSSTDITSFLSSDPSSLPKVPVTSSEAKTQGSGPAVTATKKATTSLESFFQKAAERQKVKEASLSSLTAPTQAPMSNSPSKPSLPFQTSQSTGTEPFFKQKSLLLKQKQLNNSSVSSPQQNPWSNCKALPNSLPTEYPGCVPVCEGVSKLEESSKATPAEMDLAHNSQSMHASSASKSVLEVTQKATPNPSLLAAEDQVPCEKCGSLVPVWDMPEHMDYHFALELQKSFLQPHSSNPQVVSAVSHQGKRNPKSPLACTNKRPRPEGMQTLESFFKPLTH
# Assay: qHTS for Inhibitors of Polymerase Eta
# Conditions: recombinant Pol eta, fluorescent DNA replication assay; series mostly up to 114 µM
# Procedure, shortened: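 Pol eta at 10 nM preincubated with compounds 15 min at room temperature; reaction started with fluorescent substrate (50 nM final) and read kinetically at 0 and 10 min.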
# Potency is the fitted concentration of half-maximal effect; tags give direction and shape of the fitted curve.
row,Compound,Potency
1,Cc1ccc(S(=O)(=O)Nc2cc(C(=O)Nc3cc(C)cc(C)c3)ccc2Cl)cc1,"inconclusive: 14.1 µM [inhibitor, full curve, poor fit]"
2,COc1ccc(C=NNC(=O)CCCCC(=O)NN=Cc2ccc(OC)cc2)cc1,inactive
3,CN(C(=O)c1cccc(NC(=O)Cc2cccc(NC(=O)C3CCN(C(=O)C4CCC4)CC3)c2)c1)C1CC1,inactive
4,O=C1CCCC2=C1C(c1ccco1)Nc1ccc(C(=O)c3ccccc3)cc1N2 (centres undefined),"inconclusive: 15.8 µM [inhibitor, partial curve, poor fit]"
5,C=CCn1c(O)c(N=NC(=O)CNC(=O)/C=C/c2ccc(OC)cc2)c2ccccc21,inactive
6,O=C(Nc1cccnc1)c1ccc(COc2ccccc2Br)cc1,"inconclusive: 39.8 µM [inhibitor, single point]"
7,Cc1ccc(C(=O)Sc2cccccc2=O)cc1,inactive
8,CCOC(=O)/C=C/C(=O)Nc1ccc(S(=O)(=O)N(C)c2ccccc2)cc1,"inconclusive: 50.1 µM [inhibitor, partial curve]"
9,CCOC(=O)c1c(C=O)c2sc(C)cc2n1C,"inconclusive: 100 µM [inhibitor, single point]"
10,O=C(c1ccc(=O)oc1)N1CCCc2ccccc21,active: 3.55 µM
11,COC(=O)C1=C(C)N(CCCC(=O)O)C(=O)NC1c1ccc(C(F)(F)F)cc1 (centres undefined),inactive
12,O=c1oc2ccccc2n1CCn1c2ccccc2c2nc3ccccc3nc21,"inconclusive: 8.91 µM [inhibitor, full curve, poor fit]"
13,Cc1ccc2[nH]c(O)c(N=NC(=O)c3ccc(NS(=O)(=O)c4cccs4)cc3)c2c1,active: 22.4 µM
14,CCN(CC)c1ccc2cc(-c3nnc(-c4ccncc4)o3)c(=O)oc2c1,inactive
15,O=C(O)c1cccc(Cn2cc(Cl)cn2)c1,"inconclusive: 22.4 µM [inhibitor, single point]"
16,COC1=C(Br)C(=O)c2ncccc2C1=O,active: 3.16 µM
17,CC(C)CCn1c(N2CCc3ccccc3C2)nc2c1c(=O)[nH]c(=O)n2C,inactive
18,Cc1ccc(S(=O)(=O)c2nc(-c3ccco3)oc2SC(C)C)cc1,active: 89.1 µM
19,O=c1[nH]n(-c2ccc([N+](=O)[O-])cc2)c(=O)c2ccccc12,active: 39.8 µM
20,O=C1C=C(c2ccccc2)C(c2ccccc2)C1O (centres undefined),inactive
21,COC(=O)Cc1[nH]nc2c1C(C1C=CCCC1)C(C#N)=C(N)O2 (centres undefined),"inconclusive: 35.5 µM [inhibitor, partial curve, poor fit]"
22,C=C1N(C)c2cc([N+](=O)[O-])c(N)cc2C1(C)C,"inconclusive: 79.4 µM [inhibitor, partial curve, poor fit]"

row,Compound,Potency
1,COc1ccc(Nc2nc(N)c([N+](=O)[O-])c(NC3CCCCC3)n2)cc1,"inconclusive: 89.1 µM [inhibitor, partial curve, poor fit]"
2,N#Cc1ccc(COC(=O)CC(NC(N)=O)c2ccc(Cl)cc2)cc1 (centres undefined),"inconclusive: 63.1 µM [inhibitor, partial curve, poor fit]"
3,Cc1ccc(/C=C2\SC(=S)N(CCCC(=O)Nc3ccccc3C(=O)O)C2=O)cc1,"inconclusive: 89.1 µM [inhibitor, single point]"
4,COc1cccc(C(=O)NN2CC(O)=C(c3nc(C)cs3)C2=N)c1,"inconclusive: 89.1 µM [inhibitor, partial curve, poor fit]"
5,CCOC(=O)C1CCN(c2cc3c(cc2NC(=O)c2ccc(OC)c(OC)c2)n(C)c(=O)n3C)CC1,active: 50.1 µM
6,O=C(/C=C/c1ccc([N+](=O)[O-])cc1)Nc1cccc(C(=O)Nc2ccccc2C(=O)O)c1,active: 28.2 µM
7,CC(C)(C)c1ccc(C(=O)Nc2nnc(C3=COCCO3)o2)cc1,"inconclusive: 79.4 µM [inhibitor, partial curve, poor fit]"
8,Cc1ccnc(NCc2cc(C)ccc2O)c1,"inconclusive: 39.8 µM [inhibitor, partial curve, poor fit]"
9,COc1ccc(C2C(=O)N(C3CCCCCC3)CC(=O)N2CCc2ccccc2)cc1 (centres undefined),inactive
10,CCOc1ccc(S(=O)(=O)Nc2ccc(C(=O)N/N=C/c3c(C)nn(-c4ccccc4)c3N3CCCC3)cc2)cc1,inactive
11,CN(CCO)c1nc(N)c2c(N)nc3c(c2c1C#N)CC(=O)N3Cc1cccs1,"inconclusive: 28.2 µM [inhibitor, partial curve, poor fit]"
12,COc1ccc2oc(C(=O)OCC(=O)Nc3ccccc3)c(C)c2c1,"inconclusive: 15.8 µM [inhibitor, full curve, poor fit]"
13,COc1ccc(OC)c(/C=C2\SC(=S)N(C(C(=O)O)c3ccccc3)C2=O)c1 (centres undefined),"inconclusive: 89.1 µM [inhibitor, single point]"
14,COc1cc(C2C(C(C)=O)=C(O)C(=O)N2CCc2c[nH]c3ccccc23)ccc1O (centres undefined),inactive
15,CCCCCN1CC(O)=C(c2ccccc2)C1=N,"inconclusive: 39.8 µM [inhibitor, single point]"
16,Cc1ccc(S(=O)(=O)c2cc(C)cc(S(=O)(=O)Nc3ccc(C(=O)O)cc3)c2C)cc1,"inconclusive: 79.4 µM [inhibitor, partial curve, poor fit]"
17,CCOC(=O)Cc1csc(SCC(=O)N(CC(C)C)c2c(N)n(Cc3ccccc3)c(=O)[nH]c2=O)n1,inactive
18,O=C1c2ccccc2C(=O)C1c1nccc2ccccc12,"inconclusive: 11.2 µM [inhibitor, partial curve]"
19,N#Cc1sc2nc(C3CC3)cc(-c3ccccc3)c2c1N,"inconclusive: 44.7 µM [inhibitor, partial curve, poor fit]"
20,CCOC(=O)c1c(-c2ccc(F)cc2)csc1NC(=O)CN1C(=O)NC2(CCCCC2C)C1=O (centres undefined),"inconclusive: 3.98 µM [inhibitor, partial curve, poor fit]"
21,COc1ccc(CCC(=O)N2CCN(S(=O)(=O)c3ccc(C)cc3)CC2)cc1,inactive
22,COc1ccc(C(=O)COC(=O)c2ccc3c(c2)OCO3)c(OC)c1,"inconclusive: 14.1 µM [inhibitor, partial curve, poor fit]"
